B1: LINE1-mini (parent)
chain: GGCAGAGCUCAACACAGCGUGGCAAAGUGGCUGUGGCUAGACUGCC

Read counts are not given, so values of variants with three or more changes are uncertain.

This series covers variants of B1. The series is described as follows: self-cleavage, relative activity (ratio to wild type); higher = more cleavage; in vitro, sequencing; the parent is a self-cleaving ribozyme.
Take GGCAGAGCUCAACACAACGUGGCAAAGUGGCCGUGCGUACACUGCC: the self-cleavage amounted to 0.02.
Turning to GGCAGAGCUCAACACACCGUGGCAAAGUGGCUGUCGCUAUACUGCU, the self-cleavage was 0.04.
On to GGCAGAGCUCAACACACCGUGGCACAGUGGCUGUAGCUAGACUGCC, for which the self-cleavage amounted to 0.05.
With GGCAGAGCUCAACACACCGUGGCAAAGUGGCUGUGGCAAUACUGCC the figure was 0.04.
On to GGCAGAGCUCAACACAACGUGGCAAAGUGGCUGUGGCAUGACUGCC, for which the self-cleavage came out at 0.1.
Turning to GGCAGAGCUCAACACACCGUGGCAAAGUGGCUGUGGCGAGACCGCC, the self-cleavage was found to be 0.01.
As for GGCAGAGCUCAACACAACGUGGCAAAGUGGCUGGGGAUAGACUGCC, the self-cleavage is 0.04.
As to GGCAGAGCUCAACACACCGUGGCAAAGUUGCUGUAGCUAGACUGCC, the self-cleavage worked out at 0.
Regarding GGCAGAGCUCAACACACCGUGGCAAAGUGGGUGCGGCUAGAUUGCC, the self-cleavage came out at 0.05.
As for GGCAGAGCUCAACACACCGUGGCAAAGUAUCUGUGUCUAGACUGUC, the figure is 0.01.
With GGCAGAGCUCAACACACAAUGGCAAAGUGGCCGUGGCUAGACUGCC the figure was 0.16; with GGCAGAGCUCAACACAUAGUGGCAAAGUGUCUGUGGCUAGACUGCC, 0.15.
As for GGCAGAGCUCAACACAUAGUGGCAAAGUGCCUGUGGCUAGACUGCC, the figure is 1.46; as for GGCAGAGCUCAACACACCGUGGCAAAGUGGCUGUAGAUAGGCUGAA, 0.01; as for GGCAGAGCUCAACACAACGUGGCAAAGUGGCUGUAGUUAGACUGCC, 0.05.
For the variant GGCAGAGCUCAACACAUUCUGGCAAAGUGGCUGUGGCUAGAGUGCC, the self-cleavage came out at 0.05.
As for GGCAGAGCUCAACACACCGUCGCAAAGUGGCUGUGUCUAGACGUCC, the self-cleavage is 0.01.
For the variant GGCAGAGCUCAACACAACGUGGCAAAGGGGCUGUGGCUACACUGCC, the self-cleavage came to 0.02.
As for GGCAGAGCUCAACACACCGUGGCAAAGUGGCUGUUACUACACUGCC, the figure is 0.02; as for GGCAGAGCUCAACACACAGUGUCAAAGUGGCUGUGGCUAGGAUGCC, 0.08; as for GGCAGAGCUCAACACACGUUGGCACAGUGCCUGUGGCUAGACUUCC, 0.02.
Consider GGCAGAGCUCAACACAUAGUGGCAAAGUUGCUGUGGCUAGACUGCC, for which the self-cleavage is 0.21.
With GGCAGAGCUCAACACAACGUGGCAAAGUGGCUGUGCCUACACUGCC the figure was 0.04.
As for GGCAGAGCUCAACACACCGUGCCAACGUGGCUGUGGCUAGAUUGGC, the figure is 0.08; as for GGCAGAGCUCAACACAUGGUAGCAAAGGGGCUGUGGCUAGACUGCU, 0.06.
As for GGCAGAGCUCAACACACCGUGGCAAUGUGGCUGUGCAUAGACUGCC, the figure is 0.06; as for GGCAGAGCUCAACACACCGUGGCAAAAUGGCCGUGGCUAGACUGCC, 0.1.
In the case of GGCAGAGCUCAACACACCCUGGCAGAGAGGCUUUGGCUAGACUGCC, the self-cleavage is 0.05.
With GGCAGAGCUCAACACACCUUAGCAAAGUGGCUGUGGCUAGACUGUC the figure was 0.48; with GGCAGAGCUCAACACACCGUGGCAAAGUCGCUGUGGCGAGACUACC, 0.04; with GGCAGAGCUCAACACAUCGUGGCCAAGUGGCUGUGGCUAGACUGCA, 0.2.
For GGCAGAGCUCAACACACCGUGGCAAAUUGGCUUUGGCUACACUGCU, the self-cleavage was 0.01.
With GGCAGAGCUCAACACAACGGGGCAAAGUGGCUGUGGCUAGACUGUC, the self-cleavage amounted to 0.94.
As for GGCAGAGCUCAACACACCGUGGCAAAGUGCCUGUUGCCAGACUGCC, the figure is 0.
With GGCAGAGCUCAACACAUAGUGCCAAAGUGGCUGUGGCUAGACCGCC the figure was 0.02.
Take GGCAGAGCUCAACACACCGUUGCAAAGUGGCUGCGGCUAGACUGCC: the self-cleavage was found to be 0.
With GGCAGAGCUCAACACACAGUGGCAAAGUGGCUGUGGCUCGACUGCC the figure was 0.08; with GGCAGAGCUCAACACAUUCUGGCAAAGUGGCUGUGGCUCGACUGCC, 0.1; with GGCAGAGCUCAACACACCGUGGCAACGUAGCUGUGGCUAGACUACC, 0.23.
With GGCAGAGCUCAACACACCGUGGCAAAGUGGAUGUUGCUAGACUGCC the figure was 0.06; with GGCAGAGCUCAACACACCGUGGCCAGGUGGCUAAGGCUAGACUGCC, 0.02.
As for GGCAGAGCUCAACACACCGUGGCAAAGUGUCUGUGGCCAGACUGCC, the figure is 0.07; as for GGCAGAGCUCAACACACCGUGGCAAAGCGGCUGUGGCCAGACUGCC, 0.33.
As to GGCAGAGCUCAACACAUCGUGGCACAGUAGCUGUGGCUAGACUGCC, the self-cleavage is 0.38.
As for GGCAGAGCUCAACACACCGCGGCAAAGUGGCUGUGGCUAGACAGCC, the figure is 0.05; as for GGCAGAGCUCAACACACCGUGGCAUAGUGCCUGUAGUUAGACUGCC, 0.05; as for GGCAGAGCUCAACACACCGCGACAAAGUGGCUGUGGCUUGACUGCC, 0.23.
With GGCAGAGCUCAACACAUCGUGGCAAAGUGGCUGUGGCUAGGCGGCC, the self-cleavage amounted to 0.
In the case of GGCAGAGCUCAACACACCGUGGGAAAGUGCCUGUGGCUAGACUGCC, the self-cleavage was 0.03.
As for GGCAGAGCUCAACACACCGUGGCAAAUUGGCUUUGGCUAGACUGCC, the self-cleavage stood at 0.03.
As for GGCAGAGCUCAACACACCGUGGCACAGUGGCUGUGACUAGACUGCC, the figure is 0.1; as for GGCAGAGCUCAACACAUAGGGGCAAAGUUGCCGUGGCGAGACUGCC, 0.02; as for GGCAGAGCUCAACACACCAUGGCAAAGUGACUGUGGCUAGACUGCC, 1.5.
With GGCAGAGCUCAACACAACGAUGCAAAGUGGCUGUGGGUAGUAUGCC the figure was 0.05; with GGCAGAGCUCAACACACCGUGGCAAUCUGGCUGUGGCUAGACUGCC, 0.3.
Take GGCAGAGCUCAACACAACGCGGCAAAGUGGCUGUGGAUAGAAUGCC: the self-cleavage was found to be 0.
As for GGCAGAGCUCAACACACCGUGCCAAAGUGGCUGUGGCUCGACUGCC, the figure is 0.04; as for GGCAGAGCUCAACACAUCGUGGCAACGUGGCUGUGGCUAGUCUUGC, 0.01.
With GGCAGAGCUCAACACACCGUGGCAUAGUGGUUGUGGCUAGACAGCC the figure was 0.01; with GGCAGAGCUCAACACACCGUGGCGAAGGGGGUGUGGCUAGACUGUC, 0.08.
With GGCAGAGCUCAACACAUCGUGGCGAAGUGGCUGUGCCUGGACUGCC the figure was 0.07; with GGCAGAGCUCAACACAUGGUCGCAAAGUGGCUGUGGCUAGACUGCC, 0.1; with GGCAGAGCUCAACACAACGGGGCAAAGUGGCUGUGGAGAGACUGCC, 0.01.
As to GGCAGAGCUCAACACACCGUGGUAAAGUGGCUGUGGCUAGAGUGCC, the self-cleavage was 0.02.
On to GGCAGAGCUCAACACAACGUGGCAAAGUGGCAGUGGCUAGAUUGGC, for which the self-cleavage was 0.01.
With GGCAGAGCUCAACACACCGUAGCAAAGUGACUGGGGCUAGACUGCC the figure was 0.03; with GGCAGAGCUCAACACACCGUGGCAAAGUGGCUGGGGCUAAACUGCC, 0.05.
On to GGCAGAGCUCAACACACCGUGCCAAAGUGGCUGUGGCUAGAAUGCC, for which the self-cleavage was found to be 0.42.
With GGCAGAGCUCAACACACCGUGGGAAAGUGGCUGUGGCUAAACUGCC, the self-cleavage was determined as 0.
As for GGCAGAGCUCAACACAUCGUGGCACAGCGGCUGUGGCUAGACUGCC, the figure is 0.32.
As for GGCAGAGCUCAACACACCGUGGCAAAGUGGCUGAGGCUAGACAGCC, the figure is 0.01.
For the variant GGCAGAGCUCAACACACCGUGGCAAAGUGGCUGUAGAUAGACUGGC, the self-cleavage is 0.04.
In the case of GGCAGAGCUCAACACACCGUUGCAAAGUCGCUGUGGCUAGACUGCC, the self-cleavage was 0.61.
As to GGCAGAGCUCAACACAACGUGGCAAAGUGGCUGUGGCUACUCUGCC, the self-cleavage worked out at 0.03.
As for GGCAGAGCUCAACACACCGUGGAAAAGUGGCUCUGGCUAAACUGCC, the self-cleavage was 0.03.
With GGCAGAGCUCAACACACCGUGUCUAAGUGGAUGUGGCUUGAGUGCC the figure was 0.01.
Turning to GGCAGAGCUCAACACAACGUGGCAAAGUGGCUGUGUCUAGACUUCC, the self-cleavage came to 0.01.
Turning to GGCAGAGCUCAACACACCGUGGCUAAGCGGCUGUGCCUAGGCUGCC, the self-cleavage stood at 0.05.
Consider GGCAGAGCUCAACACACCGUGGCAAAGCGGCUGUGUCUAGACUGCC, for which the self-cleavage was found to be 0.01.
As for GGCAGAGCUCAACACAACGCGGCAAAGUAUCUGUGGCUAGACUGCC, the figure is 0.04; as for GGCAGAGCUCAACACACCGUGACAAAGUGGCUGUGUCUAGACUGCC, 0.05.
Take GGCAGAGCUCAACACAACGUGGCAAAGUGGCUGUGCCUAGAUUGCA: the self-cleavage is 0.01.
With GGCAGAGCUCAACACAUAGUGGCAAAGUUGUUGUGGCUAGAAUGCC the figure was 0.05; with GGCAGAGCUCAACACACGGUGGCAAAGUGUCUGUGGCUAGACUGCC, 0.22.
With GGCAGAGCUCAACACAUCGUGGCAUAUUGGCUGUGACUAAACUGCC the figure was 0.03.
With GGCAGAGCUCAACACAACGUGGCAAAGUGUCUGUUGCUAGACUGCC the figure was 0.04; with GGCAGAGCUCAACACAACGGUGCAAAGUGGCUGUGGCUAGACUCCC, 0.01; with GGCAGAGCUCAACACAUCGUGGCCAAAUGGCUGUGGCUAGGCUGCC, 0.09.
For GGCAGAGCUCAACACAUCGUGGGAAAGUGGCUGUGGGUAGAGUGCC, the self-cleavage is 0.02.
In the case of GGCAGAGCUCAACACAUAGUGGCAAAGUGGCUGUGGCCAGACUGCC, the self-cleavage came to 0.07.
With GGCAGAGCUCAACACAACGAGGCAAAGUGGCUGUCGCUAGACUGCC the figure was 0.02; with GGCAGAGCUCAACACACCGGGGCAAAGUGGCUGUGGCUAGAGUGCG, 0.03.
With GGCAGAGCUCAACACACCGUGGAUAAGUGGCUGGGGCUAGACAGCC the figure was 0.05.
As for GGCAGAGCUCAACACACCGUGGCAAAGUGGCUGUGGGUACACUGCC, the figure is 0.05; as for GGCAGAGCUCAACACACCGUGGCAAAGGGGCUCUCUCUAGACUGCC, 0.01; as for GGCAGAGCUCAACACACAGUGGCUAAGUGGCUGUGGCUAGACUGCC, 0.11.
As for GGCAGAGCUCAACACACAGUGGCAAAGUAGCUGUGGCUAGACUGCC, the self-cleavage stood at 0.15.
For the variant GGCAGAGCUCAACACACAGUGUCAAAGUGGUUGUAGCUAGACUGCC, the self-cleavage came out at 0.01.
With GGCAGAGCUCAACACACCGUGGCAAAGUGGUGGUAGCUAGACUGCC the figure was 0.06; with GGCAGAGCUCAACACACCGUGGCAAGGUGGCUGUGGCUUGACUGUC, 0.04.
With GGCAGAGCUCAACACACUGUGGCAAUGUGGCUGUGGCUAGACUGCC the figure was 0.07; with GGCAGAGCUCAACACAACGCGGCAAAGUGGCUCUGGCUAGACUGUC, 0.01.
GGCAGAGCUCAACACACCGUGGCAAAGUGACUGUAGCUAGACUGCC: the self-cleavage worked out at 0.02.
With GGCAGAGCUCAACACACCGUGGCAAAGUGGCUGUUGCUACACUGCC the figure was 0.07; with GGCAGAGCUCAACACACCGUGGCAAAGUGGUUGUGGCUGGACUGCC, 0.03.
In the case of GGCAGAGCUCAACACACCGUUGCAAAGGGGGUGUGGCUAAACUGCC, the self-cleavage stood at 0.02.
With GGCAGAGCUCAACACACUGUGGCAAAGUGGCUGUGGCUAGACUGUC the figure was 0.03.
As for GGCAGAGCUCAACACAUCGUGGCAGAUUGGCUGUGACUAGACUGCC, the figure is 0.07; as for GGCAGAGCUCAACACACCGUGGCCAAGUGGCUGUGGCUGGACUAAC, 0.03.
With GGCAGAGCUCAACACACCGUGGCAAAGUGGCUGUGUGUAGACUGCC the figure was 0.11; with GGCAGAGCUCAACACAUGGUGGCAAAUUGGCUGUGGCUAGACUGCC, 0.17; with GGCAGAGCUCAACACAUCGUGGCCAAGUGGCUGUGGCUAUCCUGCC, 0.07.

These data come from the RNAGym collection of RNA variant scans (doi:10.7554/elife.90254).
